Structures are written as SMILES. Screen size: about 310,000 compounds; about 14,000 (4.5%) showed an effect of 50% or more. The effect is printed as a negative number. Some of the results follow.

The values that follow come from article PMC4336329 (PLoS ONE, 2015).
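Also: peak tail current of the secondary pulse compared with the same well before compound.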

Chain of human ether-à-go-go-related gene (hERG) potassium channel (Q12809 whole entry, looked up): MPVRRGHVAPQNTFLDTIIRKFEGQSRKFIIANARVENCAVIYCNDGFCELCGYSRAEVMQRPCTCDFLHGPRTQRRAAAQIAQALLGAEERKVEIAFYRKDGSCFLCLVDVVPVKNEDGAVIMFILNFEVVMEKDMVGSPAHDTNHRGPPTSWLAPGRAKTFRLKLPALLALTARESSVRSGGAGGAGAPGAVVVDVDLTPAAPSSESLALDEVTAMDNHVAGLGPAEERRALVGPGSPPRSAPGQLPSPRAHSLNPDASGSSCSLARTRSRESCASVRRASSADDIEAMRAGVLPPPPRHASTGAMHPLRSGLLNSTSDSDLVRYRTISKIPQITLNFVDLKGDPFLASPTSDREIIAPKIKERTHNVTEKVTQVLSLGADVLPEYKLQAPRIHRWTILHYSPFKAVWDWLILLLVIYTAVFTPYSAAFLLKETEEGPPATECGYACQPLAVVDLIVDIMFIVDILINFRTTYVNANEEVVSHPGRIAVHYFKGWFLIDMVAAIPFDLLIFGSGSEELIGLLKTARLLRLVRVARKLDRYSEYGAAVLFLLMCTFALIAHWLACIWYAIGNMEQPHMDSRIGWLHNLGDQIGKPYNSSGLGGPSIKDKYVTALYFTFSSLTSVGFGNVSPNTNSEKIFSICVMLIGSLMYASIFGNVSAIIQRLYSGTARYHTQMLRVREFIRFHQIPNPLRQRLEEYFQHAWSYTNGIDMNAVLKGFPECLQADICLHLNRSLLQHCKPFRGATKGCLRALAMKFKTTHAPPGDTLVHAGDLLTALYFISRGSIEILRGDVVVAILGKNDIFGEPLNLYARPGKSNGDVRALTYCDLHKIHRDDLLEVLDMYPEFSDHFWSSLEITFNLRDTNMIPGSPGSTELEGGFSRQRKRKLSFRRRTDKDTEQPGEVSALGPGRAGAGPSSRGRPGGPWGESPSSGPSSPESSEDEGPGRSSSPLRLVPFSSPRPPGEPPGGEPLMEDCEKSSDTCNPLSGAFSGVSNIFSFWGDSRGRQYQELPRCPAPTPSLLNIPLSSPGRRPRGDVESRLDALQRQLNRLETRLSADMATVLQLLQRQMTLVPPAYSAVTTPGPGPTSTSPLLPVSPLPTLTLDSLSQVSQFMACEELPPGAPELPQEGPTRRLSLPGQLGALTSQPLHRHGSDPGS

This assay has as its target human ether-à-go-go-related gene (hERG) potassium channel (human, UniProt Q12809). Description: primary screen, population patch clamp on CHO cells stably expressing hERG.
Turning to `Cn1cc(Br)c(C(=O)Nc2c(F)c(F)c(F)c(F)c2F)n1`, the “hERG current change (%, negative = inhibition) at 10uM” value is -6.6%.
Consider `Cc1cc(Cl)ccc1C(=O)C1CCCN(C(=O)c2ccc3ncccc3c2)C1` (centres unmarked), for which the “hERG current change (%, negative = inhibition) at 10uM” value is on record as -29.5%.
Take `COc1ccc(N2CCSC2C(=O)NN)cc1` (centres unmarked): the “hERG current change (%, negative = inhibition) at 10uM” value was -9.35%.
In the case of `C=CCN(CC=C)Cc1nc(N)nc(Nc2ccccc2C)n1`, the “hERG current change (%, negative = inhibition) at 10uM” value is recorded as -10.8%.
For the compound `O=C(O)c1ccccc1C(=O)c1ccc2c(c1)N(Cc1cccc(F)c1)C(=O)CO2`, the “hERG current change (%, negative = inhibition) at 10uM” value is on record as -18.1%.
The figure for `N#C/C(=C/c1ccccc1)C(=O)OCC(=O)Nc1ccccc1[N+](=O)[O-]` is 8.46%; for `O=C(CSc1ccccc1C(=O)NCCCN1CCCC1=O)NCc1ccco1` it is 2.25%; for `O=C(c1ccc2c(=O)n3c(nc2c1)CCCCC3)N1CCN(Cc2ccccc2)CC1` it is -2.69%.
As to `Cc1ccc(-c2c(C)sc3nc[nH]c(=O)c23)cc1C`, the “hERG current change (%, negative = inhibition) at 10uM” value was -7.6%.
For the compound `CCOC(=O)N1CCN(C(=O)c2cc3cc(C)ccc3[nH]2)CC1`, the “hERG current change (%, negative = inhibition) at 10uM” value is -7.43%.
Turning to `COc1ccc2nc(-c3ccccc3)cc(C(=O)N3CCC3)c2c1`, the “hERG current change (%, negative = inhibition) at 10uM” value is given as -12.1%.
As for `Cc1ccccc1NC(=S)N(CCc1c(C)[nH]c2ccc(F)cc12)Cc1ccncc1`, the “hERG current change (%, negative = inhibition) at 10uM” value was -18.5%.
In the case of `COc1ccc(Cl)cc1NC(=O)CSc1nnc(C)c(=O)n1N`, the “hERG current change (%, negative = inhibition) at 10uM” value came out at 2.48%.
As for `COC(=O)CSC1=C(C#N)C(c2ccc(C)o2)CC(=O)N1` (centres unmarked), the “hERG current change (%, negative = inhibition) at 10uM” value was found to be 7%.
On to `Cc1ccc(C2Nc3ccccc3C(=O)N2CCCN2CCOCC2)cc1` (centres unmarked), for which the “hERG current change (%, negative = inhibition) at 10uM” value was -34.2%.
For `CC(=O)c1c(C)nc(-c2ccc(Cl)cc2)nc1N=CN(C)C`, the “hERG current change (%, negative = inhibition) at 10uM” value is 6.82%.
With `COc1ccc(-c2c(C)oc3c(CN4CCN(C)CC4)c(O)ccc3c2=O)cc1`, the “hERG current change (%, negative = inhibition) at 10uM” value is 13%.
Next, `Cc1ccc(S(=O)(=O)N2CCN(C(=O)CSc3n[nH]c(N)n3)CC2)c(C)c1`: 6.31%; `CCN1C(=O)/C(=C\c2ccc3c(c2)OCO3)C(C(=O)OC)=C1C`: 2.26%.
With `COc1cccc(N/C=C/C(=O)c2ccc(C)cc2)c1`, the “hERG current change (%, negative = inhibition) at 10uM” value came out at 2.4%.
Regarding `CC(/C=N/NC(=O)c1cc(-c2ccc(Cl)cc2)nc2ccccc12)=C\c1ccco1`, the “hERG current change (%, negative = inhibition) at 10uM” value came out at 38.4%.
`CCOC(=O)C(C(=O)OCC)C(Nc1ccc(Br)cc1)c1ccccc1` (centres unmarked): the “hERG current change (%, negative = inhibition) at 10uM” value is -6.82%.
Next, `Cc1noc(C)c1COc1ccc(C(=O)NCC2CCCO2)cc1` (centres unmarked): 7.53%; `Cc1nccn1-c1c([N+](=O)[O-])c(=O)n(C)c2ccccc12`: 4.46%.
In the case of `Cc1ccc(Cl)cc1N(CC(=O)N1CCCCCC1)S(C)(=O)=O`, the “hERG current change (%, negative = inhibition) at 10uM” value is reported as -7.3%.
`CCC(C)C(NC(C)=O)C(=O)NC(=O)NC(c1ccccc1)c1ccccc1` (centres unmarked): the “hERG current change (%, negative = inhibition) at 10uM” value is given as -15.8%.
In the case of `O=C(NC1CCSc2ccccc21)c1c(F)cccc1Cl` (centres unmarked), the “hERG current change (%, negative = inhibition) at 10uM” value is given as 13.8%.
Turning to `CN1C2CCC1CC(NS(=O)(=O)c1cc(Cl)c(Cl)cc1Cl)C2` (centres unmarked), the “hERG current change (%, negative = inhibition) at 10uM” value is -27.1%.
With `Nc1nc(N)c(N=Nc2ccc(C(=O)O)cc2)c(N)n1`, the “hERG current change (%, negative = inhibition) at 10uM” value turned out to be 23%.
In the case of `Cc1c(C(=O)NNC(=O)c2ccccc2O)oc2ccc(Br)cc12`, the “hERG current change (%, negative = inhibition) at 10uM” value amounted to 8.46%.
The figure for `Cc1ccc(-c2noc(CCC(=O)NCCCN3CCN(c4ccc(F)cc4)CC3)n2)cc1` is -66.8%; for `CC1CCCN(CCCOc2ccc(Cl)cc2Br)C1.O=C(O)C(=O)O` (centres unmarked) it is -70.5%; for `Cc1cc(C(=O)NN=C2CCCCCCC2)c2ccccc2n1` it is 5.42%.
On to `Fc1ccccc1N1CCN(Cc2cccnc2)CC1`, for which the “hERG current change (%, negative = inhibition) at 10uM” value is given as -0.61%.
Next, `COc1ccc(NC(=O)C2Cc3cccc(OC)c3O/C2=N\O)cc1` (centres unmarked): 6.66%.
The figure for `COc1ccc(NC(=S)NN2C(C)CCCC2C)cc1` (centres unmarked) is 16.6%; for `COc1cccc(/C=N/NC(=O)c2c(C)nc3ccc(Br)cn23)c1` it is -6.71%.
Next, `Cc1nc2ccc(S(=O)(=O)NCC(=O)NCc3ccc(Cl)cc3)cc2s1`: 17.4%.
As to `CS(=O)(=O)N(CC(=O)N1CCCC1)c1cc(Cl)ccc1Cl`, the “hERG current change (%, negative = inhibition) at 10uM” value worked out at 15.6%.
Consider `C/C(=N\Nc1nc(N2CCCCC2)nc(N2CCOCC2)n1)c1cccs1`, for which the “hERG current change (%, negative = inhibition) at 10uM” value came to 11.4%.
The figure for `CCC1CCc2c(sc(NC(=O)c3cccnc3)c2C(N)=O)C1` (centres unmarked) is 17.9%; for `Cc1cc(C)c2c(CC(=O)NNC(=O)c3ccccc3)coc2c1` it is 20.1%; for `Cc1cc(OCc2nn[nH]n2)c2c(C)c(CC(=O)O)c(=O)oc2c1` it is 14.8%.
`CCCCNC(=S)NNC(=O)c1ccoc1C`: the “hERG current change (%, negative = inhibition) at 10uM” value is given as 4.26%.
As to `COCCNC(=O)/C(C#N)=C\c1ccc(CNC(=O)C(=O)Nc2ccc(C)c(C)c2)o1`, the “hERG current change (%, negative = inhibition) at 10uM” value is -30.8%.
In the case of `Cc1nccn1CC1CCc2c(c3ccccc3n2C)C1=O.Cl.O` (centres unmarked), the “hERG current change (%, negative = inhibition) at 10uM” value is on record as -35.9%.
Take `CCC(Oc1ccc(C)cc1)C(=O)Nc1ccc(S(=O)(=O)Nc2cc(C)on2)cc1` (centres unmarked): the “hERG current change (%, negative = inhibition) at 10uM” value is 21.9%.
Take `O=C1ON=C(c2ccccc2)/C1=C\c1ccco1`: the “hERG current change (%, negative = inhibition) at 10uM” value is on record as -15.8%.
For `CC1=NN(C(=O)c2c(Br)c(C)nn2C)C(O)(C(F)(F)F)C1` (centres unmarked), the “hERG current change (%, negative = inhibition) at 10uM” value is reported as -5.1%.
The figure for `Cc1ccccc1OC(=O)c1cccnc1` is -2.11%; for `COC(=O)CN1C(c2ccccc2O)Nc2ccc(Br)cc2C1c1ccccc1` (centres unmarked) it is -12.9%.
Turning to `S=c1oc(-c2ccncc2)nn1CCc1ccncc1`, the “hERG current change (%, negative = inhibition) at 10uM” value came out at 13%.
For `Cc1ccc(OCCCn2c(=O)oc3ccccc32)cc1`, the “hERG current change (%, negative = inhibition) at 10uM” value is -5.25%.
`Cc1nnc(SCC(=O)NCc2ccccc2Cl)n(N)c1=O`: the “hERG current change (%, negative = inhibition) at 10uM” value is -11.5%.
On to `CC12COC3(C(=O)Nc4ccc(F)cc4)CC1CCC32C` (centres unmarked), for which the “hERG current change (%, negative = inhibition) at 10uM” value is recorded as -18%.
Next, `O=C(Cc1c[nH]c2ccccc12)NCc1ccc(Cl)cc1`: 14.2%; `COc1ccc(Cl)cc1C(=O)Nc1nc2ccccc2[nH]1`: 23.8%; `Cc1ccc(Cn2c([N+](=O)[O-])cnc2C)cc1`: -3.73%.
Turning to `Cc1ccc(NS(=O)(=O)c2cc(Br)cnc2N)c(Cl)c1`, the “hERG current change (%, negative = inhibition) at 10uM” value is reported as -0.706%.
